Among the data in paper PMC3418226 are binding values, retold here.

The chains behind the UniProt entries cited, without tags or fusion partners.
UniProt P20963: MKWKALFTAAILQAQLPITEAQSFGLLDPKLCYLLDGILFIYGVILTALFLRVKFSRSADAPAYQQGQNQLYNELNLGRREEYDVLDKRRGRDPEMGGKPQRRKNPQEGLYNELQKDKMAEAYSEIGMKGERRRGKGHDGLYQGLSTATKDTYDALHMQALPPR

Experiment [1] concerns the target CD3ζ from activated T cells, tyrosine-phosphorylated p20-21 forms (human (endogenous in Jurkat and in T-cell blasts)) (UniProt P20963). The experiment in a line: co-IP; lysate of Jurkat cells treated with 25 μM pervanadate 30 min, immunoprecipitated with anti-CD3ζ, blotted for SAP.
The target is the same in experiment [2]. The experiment in a line: far-Western, overlay or dot blot; anti-CD3ζ immunoprecipitate of pervanadate-treated Jurkat cells resolved by SDS-PAGE on PVDF; membrane incubated with purified GST-SAP at 1 μg/mL in TBS, 0.2% Tween, 3% BSA, 1.5 h; detected with anti-GST; both purified.

These are yes or no findings as the source states them, for the method shown. For some assays here: In cells and extracts the contact can be indirect. Some results given as binding are weak or reduced against the parent protein; the word gives no strength. For some assays here: Tags and fused reporters may be left off the sequences shown.

B1: SAP (endogenous, Jurkat cells) (protein, UniProt O60880 1-128)
chain: MDAVAVYHGKISRETGEKLLLATGLDGSYLLRDSESVPGVYCLCVLYHGYIYTYRVSQTETGSWSAETAPGVHKRYFRKIKNLISAFQKPDQGIVIPLQYPVEKKSSARSTQGTTGIREDPDVCLKAP
As for B1, the binding entry in experiment [1] was “binds”.

B2: GST-SAP fusion protein (protein, UniProt O60880 1-128)
chain: MDAVAVYHGKISRETGEKLLLATGLDGSYLLRDSESVPGVYCLCVLYHGYIYTYRVSQTETGSWSAETAPGVHKRYFRKIKNLISAFQKPDQGIVIPLQYPVEKKSSARSTQGTTGIREDPDVCLKAP
As to B2, the binding result in experiment [2] is listed as “binds”.
